{"source": "the supplement of paper PMC12632987", "binders": {"B1": {"name": "traf2_out_18_3_1924 (protein)", "chain": "SAEELKEVSERIDEIIDEAEAKAREALDEIKARHPEAAEEVDRLRALLDAGAGPFGILEELAELAKRLGDEELAKELEEFLKEKRKELSELVEEYERLRK"}, "B2": {"name": "traf2_out_8_139_2534 (protein)", "chain": "EEEEEKRDEEELELVRFIMKAADEIAKIIREEEKDEERAEELSLKVYHLLGKAVANRGNEEKVNEYFDELIKYLKEKGYEKAAELAEKTREEFLEKVKEL"}, "B3": {"name": "traf2_out_20_38_2011 (protein)", "chain": "SEEEEEKKKEEELIKHAQEAYDEAEKWVAELKAEGKSVEEIAEEAKKRVREKLNAVGLEEEAEELIEDIDRVLDSPDAERLIVQILARADTLVFQKELQK"}, "B4": {"name": "traf2_out_4_186_2313 (protein)", "chain": "SEIKKARIEGLEILRNSAERLAKELKEKIEKGEKLPEEELKRYVELTVAHLKTVGLYEEAEKVEKAYEEGAPQEELLKLLYEAAELAAEKLKEKLEELKK"}, "B5": {"name": "traf2_out_18_117_1789 (protein)", "chain": "SEREKIIKELKEIAEKTGKAASELGKLVLEKWEELTPEEKSEAFDVLADLSEVRREAQLLIIEIEKENLPVEEAKKRLEELKKRAEKALKAAEEKIKKIK"}, "B6": {"name": "traf2_out_17_162_1594 (protein)", "chain": "SELEERLEEIERELEELEKELKRLKEKLKNIEKLSKEELTDLLVEASEARRRALELLERVRSLKSELPPEEYERLATRAEELAEEFQRIANAFYKKLEEM"}, "B7": {"name": "traf2_out_6_169_2483 (protein)", "chain": "SEEEELKKKAEEHYKTAKDLYELAKTIYEQVKKNNDLENLDNYILAMETILNAAKRHYDLAIEYLKKLGKEEEAKKVEEEKEKVTKEMEKMIEEIKKLKE"}, "B8": {"name": "traf2_out_20_3_2104 (protein)", "chain": "EELEKELEKELEEAIALLEKAAELADPETAAELKALRAEVEASRSLPYSDRLVKLSEVRRRVLRLAQEARAAGREELAAVLEEAAEALNKAMNLVMKIIE"}, "B9": {"name": "traf2_out_20_3_2100 (protein)", "chain": "SELEEELERELEEAEALLDEAAALADPETAARLAALRERVRASRELPLTDRLVELSAVRREVLELAQEARAAGREDLAATLEEAADALNRAMNLVMKLIE"}, "B10": {"name": "traf2_out_11_169_856 (protein)", "chain": "EEEERNRKIIEKALELNDKAKEELRKFALELAKKAGLDVAEVEKIFEKHKNSSLSALAAALIEWFKSKGKEDEAAAVEAKYDELKDKINKEMTAFLKELE"}, "B11": {"name": "traf2_out_11_169_834 (protein)", "chain": "EEKEKNRKINDFALEKNDEAKKKFKEYVLELAKEAGLDVEEIKKIFEENKNSSLSAIAAAVIKYFKEKGKEEEAKKVLEKYEELKEEINKKVTEKIKELE"}, "B12": {"name": "traf2_out_18_167_1878 (protein)", "chain": "SAELEKKLQEATDKLVELSAIRRWLRLALEALKESREKALAVLEAALKEFPDSEVLKEALKVAETKSDEELRKFLEEKIEELQKKANEEYKKLEALRKEK"}, "B13": {"name": "traf2_out_17_178_1661 (protein)", "chain": "SKEEKRKKISELTDELIDLAEAAADRALALAEAEGAVSPEELAALRRARRRGSATDVLALIERLIPRLPNAAALGALLDDFKAKYRELSKKIAEAYKEYE"}, "B14": {"name": "traf2_out_8_15_2560 (protein)", "chain": "SIEEAAEKDAEKLKKASDGDTESLIQALLGMAKAELRYAEILLEEGKKELALRTIKHARAFLKLALEEAKKSGHPNLEEIEKEAKEIEERLKEIEEKIKK"}, "B15": {"name": "traf2_out_14_166_1276 (protein)", "chain": "MTPEEIERIRKIVDELEPLTDKAVAEARAILAKNRGKLSPEQLAQVEALLALAARNIGSSAINALEQMAEIFKKAGLADAAAALKALADELREKLKELNK"}, "B16": {"name": "traf2_out_20_3_2215 (protein)", "chain": "EELRKAVEEELERVEELLEEAKPGLPEEDYEELEELLRKAREALEKDPADALVELSRLKAALLRLAQAAKAAGDEELAALLEEAAEEVNRAANLVYKLLE"}, "B17": {"name": "traf2_out_14_166_1282 (protein)", "chain": "MTPEEIARIRAIVDALEPLTDAAVAEAEAILEKNRSKLSPEQLARLEELLAIARRNVGSSAINALREMAEIFEKAGLAEAAAAFRALADELEARLSELNA"}, "B18": {"name": "traf2_out_18_167_1868 (protein)", "chain": "SEELLKKREEASDELVRLSEIRRAFLLALEALEESREKARAILEAALERLPDSEELRAALEAFDTLSDEEIRAFLESTAEELQKRMNEVYKKLEELEKEL"}, "B19": {"name": "traf2_out_13_95_1076 (protein)", "chain": "SAEANEKIMEIADRMLEEGEKILKELLEKVADDPEMKAAVQEALHLLEHHGINAAIHLLEKLAKENEEYKELLLEAIEKLRELKREAGREVARILKEEKE"}, "B20": {"name": "traf2_out_13_95_1047 (protein)", "chain": "SEETAKKIMEVADKAEEEALRLLEEALEEVADDPEAAAVLEEALRLARTRGIHEAIHLLEEARAADPEHAELFAELIEKLEEIRREAGREVAKIIKEEKE"}, "B21": {"name": "traf2_out_17_162_1500 (protein)", "chain": "AEAEARFARLREELERLKEELKKLEKKLPDLENMSKEELSDLLVEVSELKRRARRLAEELRRLAEETGSPEARELLEEAERLAEEAQKIANKIYKVYEKK"}, "B22": {"name": "traf2_out_20_38_2009 (protein)", "chain": "SEEEEEEEREEKLIEVANEAYDEAEAKVAAMKAAGKTVAEIAEAVKKEVTELLTAAGLEEEAKILVEDIDIAAKSPDAERLLVRILARAKTLVYQKELQK"}, "B23": {"name": "traf2_out_11_104_653 (protein)", "chain": "LTREQAREFNDFAMEARDRAHEIGAEVAKELEARGHTEEAARVRAALADPGTGISTLRNLLEELLPKLDEESRKVAEEAIERLEELQQEVSDKLNELEAK"}, "B24": {"name": "traf2_out_15_48_1358 (protein)", "chain": "STEALRETARKVADLIDATLDEVAKELKALLPKAKPEVKPILEEAIRVASTHRSINDTIALLEEAIKKSDPELAKELQELRDRLLATQKEASKLINETEK"}, "B25": {"name": "traf2_out_20_3_2159 (protein)", "chain": "SELEKKAEEALEKAVKLLDEAAELADPETAARLKELRERVIASKELSPEDRLVVLSEVRREVRALAEEARAAGREELAAVLEEAADALNKAMQLVYKIIE"}, "B26": {"name": "traf2_out_14_149_1231 (protein)", "chain": "SEEAKLLAAAAELTEKIAKTLEEVLKLLKEGKLEEAKKLLKESIEELEKESKKKGVTPSQLFQLEDLLELLEKDPEAAKKFAEEALARAKENADTLKEMA"}, "B27": {"name": "traf2_out_18_147_1815 (protein)", "chain": "DLNEALNELADAKDEYVQTVRDAFTALGAEAEAEKYSALARGTGSDPELLTALRDEVVAKVKALDPSKAPEVKAKLDELTAKILEYRKKINELLKKEEEE"}, "B28": {"name": "traf2_out_13_95_1211 (protein)", "chain": "EKEKTEKLREKMNEIADELIDFIEEKAEEIKEETGDEEYKEEILSTLRRYGVRAAVALIREYAEKDPEYAEVYRKAAEEAEKKIREAGRKAAEAIKEIEE"}, "B29": {"name": "traf2_out_5_63_2342 (protein)", "chain": "SEREELTELAREADRLVREMLEAAERGDEEEVERLLEEAVEDPELARLVIGILKAEARAYELSGREKELAEIAKELRERLERLLEERERREREEREAAER"}}, "note": "Over roughly 1,800 sequences, “median log2 fold change of GCK-ALFA target abundance (FLAG IP / Myc IP barcode read proportion)” has its median near 0.14; the lowest 2% begin near -0.84. Some of the results follow."}
{"biological_target": "T1, TRAF2, Q12933", "T1 chain": "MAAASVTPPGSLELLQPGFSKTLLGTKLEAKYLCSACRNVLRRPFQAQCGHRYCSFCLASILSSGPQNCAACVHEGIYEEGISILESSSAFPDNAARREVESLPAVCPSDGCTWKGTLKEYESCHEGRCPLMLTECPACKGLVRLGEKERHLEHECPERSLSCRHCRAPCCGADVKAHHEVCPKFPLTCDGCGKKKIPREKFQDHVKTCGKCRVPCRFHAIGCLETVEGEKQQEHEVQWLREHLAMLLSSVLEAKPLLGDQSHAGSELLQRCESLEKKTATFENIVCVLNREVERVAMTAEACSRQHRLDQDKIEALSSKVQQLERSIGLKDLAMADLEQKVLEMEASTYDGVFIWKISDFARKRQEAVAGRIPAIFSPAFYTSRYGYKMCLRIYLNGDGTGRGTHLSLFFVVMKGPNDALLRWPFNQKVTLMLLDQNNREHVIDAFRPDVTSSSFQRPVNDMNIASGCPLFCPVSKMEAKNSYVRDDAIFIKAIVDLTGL", "test": "median log2 fold change of GCK-ALFA target abundance (FLAG IP / Myc IP barcode read proportion) (log2 ratio); each designed protein is fused to an ALFA-tag nanobody in HEK293 cells to bring the named protein to FLAG-tagged glucokinase (GCK); Myc marks an untargeted standard; higher = target protein stabilised (more abundant)", "details": "target protein: 3xFLAG-MCP-GCK-ALFA reporter; HEK293 landing pad (RPLP)", "in_short": "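An ALFA-nanobody-fused binder library was recombined into HEK293 landing-pad cells and induced with 2 μg mL^−1 doxycycline. Cells were transfected with a plasmid expressing a FLAG-tagged target and a Myc-tagged standard. After 48 h, lysates underwent anti-FLAG and anti-Myc immunoprecipitation, and circular RNA barcodes were reverse transcribed, amplified and sequenced. Target abundance is the per-binder median log2 ratio of FLAG to Myc barcode read proportions. Barcodes needed ≥10^−7 proportion in both replicates, binders ≥3 barcodes per replicate, and a 10^−6 pseudocount was added; the two replicates were pooled.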"}
{"binder": "B1", "median log2 fold change": 0.174}
{"binder": "B2", "median log2 fold change": 0.0335}
{"binder": "B3", "median log2 fold change": 0.294}
{"binder": "B4", "median log2 fold change": 0.151}
{"binder": "B5", "median log2 fold change": 0.171}
{"binder": "B6", "median log2 fold change": 0.129}
{"binder": "B7", "median log2 fold change": -0.339}
{"binder": "B8", "median log2 fold change": 0.296}
{"binder": "B9", "median log2 fold change": 0.276}
{"binder": "B10", "median log2 fold change": 0.182}
{"binder": "B11", "median log2 fold change": 0.0793}
{"binder": "B12", "median log2 fold change": -0.0192}
{"binder": "B13", "median log2 fold change": -0.191}
{"binder": "B14", "median log2 fold change": 0.0892}
{"binder": "B15", "median log2 fold change": 0.325}
{"binder": "B16", "median log2 fold change": 0.264}
{"binder": "B17", "median log2 fold change": 0.336}
{"binder": "B18", "median log2 fold change": 0.166}
{"binder": "B19", "median log2 fold change": -0.0844}
{"binder": "B20", "median log2 fold change": 0.0877}
{"binder": "B21", "median log2 fold change": 0.232}
{"binder": "B22", "median log2 fold change": 0.142}
{"binder": "B23", "median log2 fold change": 0.419}
{"binder": "B24", "median log2 fold change": 0.33}
{"binder": "B25", "median log2 fold change": 0.32}
{"binder": "B26", "median log2 fold change": 0.24}
{"binder": "B27", "median log2 fold change": 0.234}
{"binder": "B28", "median log2 fold change": -0.746}
{"binder": "B29", "median log2 fold change": 0.114}
